# In a collection of fitness landscapes (doi:10.1126/science.1257360):
# Some of the results follow.
# B1: PhoQ; a variant is named by its letters at X, in order, P23837 (parent)
# chain: MKKLLRLFFPLSLRVRFLLATAAVVLVLSLAYGMVALIGYSVSFDKTTFRLLRGESNLFYTLAKWENNKLHVELPENIDKQSPTMTLIYDENGQLLWAQRDVPWLMKMIQPDWLKSNGFHEIEADVNDTSLLLSGDHSIQQQLQEVREDDDDAEMTHSVAVNVYPATSRMPKLTIVVVDTIPVELKSSYMVWSWFIYVLSANLLLVIPLLWVAAWWSLRPIEALAKEVRELEEHNRELLNPATTRELTSLVRNLNRLLKSERERYDKYRTTLTDLTHSLKTPLXXLQXXLRSLRSEKMSVSDAEPVMLEQISRISQQIGYYLHRASMRGGTLLSRELHPVAPLLDNLTSALNKVYQRKGVNISLDISPEISFVGEQNDFVEVMGNVLDNACKYCLEFVEISARQTDEHLYIVVEDDGPGIPLSKREVIFDRGQRVDTLRPGQGVGLAVAREITEQYEGKIVAGESMLGGARMEVIFGRQHSAPKDE
# Variants of: B1
# Experiment: enrichment ratio after two sorts for PhoP signalling (ratio (wild type AVST 3.29)); higher = more functional
# Settings: with PhoP (E. coli)
row,Variant,enrichment ratio
1,IKVA,≤ 0.25
2,NTTP,≤ 0.25
3,GLHY,≤ 0.25
4,TESL,12.5
5,AYFN,≤ 0.25
6,MSLL,13.3
7,HAWV,≤ 0.25
8,NYNG,≤ 0.25
9,HDCC,≤ 0.25
10,MINL,≤ 0.25
11,VNTI,≤ 0.25
12,KSHF,≤ 0.25
13,SKGF,≤ 0.25
14,WGKR,≤ 0.25
15,DIFT,≤ 0.25
16,ERPY,≤ 0.25
17,MIFH,9.75
18,TGPL,≤ 0.25
19,KEKA,≤ 0.25
20,TECA,0.528
21,NSKH,≤ 0.25
22,NGVS,≤ 0.25
23,IICF,0.792
24,QHPP,≤ 0.25
25,PLHI,≤ 0.25
26,FTKE,≤ 0.25

row,Variant,enrichment ratio
1,QDIP,0.586
2,GGTE,≤ 0.25
3,DLFR,≤ 0.25
4,RYIS,≤ 0.25
5,RICC,≤ 0.25
6,PSEE,≤ 0.25
7,EITS,≤ 0.25
8,NAIP,≤ 0.25
9,WDDW,≤ 0.25
10,HSWY,≤ 0.25
11,CMWF,≤ 0.25
12,SYVE,≤ 0.25
13,LFNE,≤ 0.25
14,SKLS,9.06
15,FTPD,≤ 0.25
16,TNCP,≤ 0.25
17,MRMC,≤ 0.25
18,TVLM,0.847
19,DPSF,≤ 0.25
20,TDPI,≤ 0.25
21,DSLQ,≤ 0.25
22,VVPM,≤ 0.25
23,TNMR,1.75
24,DFVE,≤ 0.25
25,HQTI,≤ 0.25
26,FWMQ,≤ 0.25

row,Variant,enrichment ratio
1,KRKR,≤ 0.25
2,EINH,≤ 0.25
3,HCSY,≤ 0.25
4,SKNE,≤ 0.25
5,ILMC,≤ 0.25
6,ANQP,≤ 0.25
7,GQKG,≤ 0.25
8,SCFA,0.377
9,KRGN,≤ 0.25
10,GNVF,≤ 0.25
11,IATT,≤ 0.25
12,YKYC,≤ 0.25
13,VLTT,≤ 0.25
14,KPFQ,≤ 0.25
15,PRQG,≤ 0.25
16,MCVP,≤ 0.25
17,STPQ,≤ 0.25
18,FNRQ,≤ 0.25
19,VYKC,≤ 0.25
20,MCCW,≤ 0.25
21,QLVL,≤ 0.25
22,MAGD,≤ 0.25
23,LPDG,≤ 0.25
24,REWP,≤ 0.25
